This is an account of results in PMC10762069.

The chains behind the UniProt entries cited, without tags or fusion partners. Where a name states a change or a piece, a line headed by the entry shows the natural chain unless it says otherwise. A line that says so, or that is headed by a name, gives the form on record, which may keep a tag or linker.
UniProt O35129: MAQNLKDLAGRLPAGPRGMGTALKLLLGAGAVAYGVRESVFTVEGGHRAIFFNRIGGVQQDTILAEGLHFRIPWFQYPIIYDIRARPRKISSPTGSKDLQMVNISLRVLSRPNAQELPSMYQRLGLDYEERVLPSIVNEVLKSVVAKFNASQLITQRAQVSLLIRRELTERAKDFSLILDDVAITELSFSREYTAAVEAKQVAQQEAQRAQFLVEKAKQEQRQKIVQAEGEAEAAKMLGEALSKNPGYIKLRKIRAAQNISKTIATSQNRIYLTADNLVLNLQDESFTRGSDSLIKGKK
mouse Phb2 delete 19-49 (pcDNA3.1-HA-C) (O35129, form named): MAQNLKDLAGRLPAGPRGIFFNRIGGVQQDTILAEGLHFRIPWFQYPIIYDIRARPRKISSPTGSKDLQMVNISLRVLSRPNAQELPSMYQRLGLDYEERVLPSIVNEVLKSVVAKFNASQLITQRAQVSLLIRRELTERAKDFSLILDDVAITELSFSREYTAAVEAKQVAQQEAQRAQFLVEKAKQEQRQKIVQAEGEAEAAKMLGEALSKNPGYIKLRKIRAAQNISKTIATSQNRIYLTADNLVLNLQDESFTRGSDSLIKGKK
mouse Phb2 delete 150-174 (pcDNA3.1-HA-C) (O35129, form named): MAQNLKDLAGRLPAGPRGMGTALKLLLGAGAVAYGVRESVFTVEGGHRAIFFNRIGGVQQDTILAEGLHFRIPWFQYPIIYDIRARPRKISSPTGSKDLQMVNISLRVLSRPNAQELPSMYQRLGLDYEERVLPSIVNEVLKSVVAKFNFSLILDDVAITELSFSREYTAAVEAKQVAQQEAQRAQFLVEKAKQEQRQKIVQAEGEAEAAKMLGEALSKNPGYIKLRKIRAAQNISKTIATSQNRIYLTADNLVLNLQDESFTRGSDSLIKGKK

The target of experiment [1] is T1, Myc-tagged GCA (mouse Gca pcDNA3.1-MYC-C) (mouse) (UniProt Q8VC88).
T1 sequence: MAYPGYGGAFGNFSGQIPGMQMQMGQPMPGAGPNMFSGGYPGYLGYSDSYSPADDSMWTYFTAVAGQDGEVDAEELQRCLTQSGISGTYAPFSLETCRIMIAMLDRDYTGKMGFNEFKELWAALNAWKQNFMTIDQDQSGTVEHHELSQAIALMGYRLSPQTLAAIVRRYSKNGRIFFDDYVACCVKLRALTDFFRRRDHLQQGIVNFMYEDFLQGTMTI
Nature of the experiment: co-IP; IP analysis of deletion mutants of GCA with full-length PHB2 and of deletion mutants of PHB2 with full-length GCA; which tag was precipitated is not stated.

Experiment [2] has as its target T1, Myc-tagged GCA (mouse Gca pcDNA3.1-MYC-C) (mouse). Nature of the experiment: co-IP; Myc-GCA and HA-PHB2 co-transfected in HEK 293T; IP with anti-Myc antibody, Western blot with anti-HA; protein A/G beads, 4 °C overnight.
Experiment [3] has as its target T2, mouse Gca delete 1-50 (pcDNA3.1-MYC-C) (mouse) (UniProt Q8VC88).
T2 sequence: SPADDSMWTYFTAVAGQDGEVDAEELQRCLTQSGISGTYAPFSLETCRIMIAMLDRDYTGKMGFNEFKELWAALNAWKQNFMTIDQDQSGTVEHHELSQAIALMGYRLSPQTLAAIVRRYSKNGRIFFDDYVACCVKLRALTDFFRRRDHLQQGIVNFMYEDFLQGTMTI
Nature of the experiment: co-IP; IP analysis of deletion mutants of GCA with full-length PHB2 and of deletion mutants of PHB2 with full-length GCA; which tag was precipitated is not stated.

Experiment [4] addresses T3, mouse Gca delete 92-127 (pcDNA3.1-MYC-C) (mouse) (UniProt Q8VC88).
T3 sequence: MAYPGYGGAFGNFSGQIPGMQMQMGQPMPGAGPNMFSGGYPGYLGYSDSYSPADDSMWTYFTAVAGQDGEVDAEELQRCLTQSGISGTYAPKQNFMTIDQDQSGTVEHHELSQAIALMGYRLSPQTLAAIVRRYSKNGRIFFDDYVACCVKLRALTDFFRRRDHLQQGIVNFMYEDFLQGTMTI
The description is as above.

Experiment [5] addresses T4, mouse Gca delete 158-193 (pcDNA3.1-MYC-C) (mouse) (UniProt Q8VC88).
T4 sequence: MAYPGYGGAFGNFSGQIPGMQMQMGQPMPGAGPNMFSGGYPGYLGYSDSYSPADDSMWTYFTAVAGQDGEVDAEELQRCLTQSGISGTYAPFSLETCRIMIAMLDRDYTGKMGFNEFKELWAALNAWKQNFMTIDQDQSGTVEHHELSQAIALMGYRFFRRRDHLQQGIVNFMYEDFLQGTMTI
The description is as above.

The target in experiment [6] is HA-tagged PHB2 (mouse Phb2 pcDNA3.1-HA) (mouse) (UniProt O35129). Nature of the experiment: co-IP; Myc-GCA and HA-PHB2 co-transfected in HEK 293T; IP with anti-HA antibody, Western blot with anti-Myc; protein A/G beads, 4 °C overnight.

Results are given in words; binding and its absence hold for the method and conditions named. Binding seen in cells or lysates may run through a third protein. Some results given as binding are weak or reduced against the parent protein; the word gives no strength. Tags and fused reporters may be left off the sequences shown.

“mouse Phb2 delete 19-49 (pcDNA3.1-HA-C) (from UniProt O35129 1-299)”: the binding result in experiment [1] is reported as “binds”.
With “mouse Phb2 delete 1-19 (pcDNA3.1-HA-C) (from UniProt O35129 20-299) (domain or fragment)”, the binding entry in experiment [1] is given as “binds”.
Turning to “HA-tagged PHB2 (mouse Phb2 pcDNA3.1-HA) (from UniProt O35129 1-299)”, the binding result in experiment [2] is reported as “binds”; in experiment [3] it was “no binding”; in experiment [4], “no binding”; in experiment [1], “binds”; in experiment [5], “no binding”.
Regarding “mouse Phb2 delete 174-299 (pcDNA3.1-HA-C) (from UniProt O35129 1-173) (domain or fragment)”, the binding result in experiment [1] is listed as “binds”.
In the case of “mouse Phb2 delete 150-174 (pcDNA3.1-HA-C) (from UniProt O35129 1-299)”, in experiment [1], the binding entry is recorded as “binds”.

B1: Myc-tagged GCA (mouse Gca pcDNA3.1-MYC-C) (protein, UniProt Q8VC88 1-220)
chain: T1 sequence
As for B1, the binding result in experiment [6] is “binds”.
